Measurements taken from PubChem BioAssay AID720709 (National Center for Advancing Translational Sciences (NCATS), 2013).
The campaign covered roughly 360,000 compounds. About 520 (0.14%) were called active. The shares of active, inactive and inconclusive entries below differ from those in the screen. The call rests on the fitted dose curve; in most records, active means well fitted inhibition curve with a large enough effect; inconclusive means small, poorly fitted or top-dose-only effect; inactive means no such curve, though single readings can be large or run the other way. Potencies of inconclusive entries are left out as doubtful fits.

Each compound was assayed against Rap guanine nucleotide exchange factor 3 (Homo sapiens) (UniProt O95398) (assay: qHTS for Antagonist of cAMP-regulated guanine nucleotide exchange factor 3 (EPAC1): primary screen). Settings: EPAC1 GEF assay, Rap1b-BODIPY-GDP exchange fluorescence; activity change, negative = inhibition: at 115 µM (top of the series).
Further: nearly all actives have a fitted effect of over 50% in size.
Potency means the concentration at half of the fitted maximal effect; tags describe the fitted curve by direction and shape.
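Wherever activity change, negative = inhibition is given: plate controls were vehicle for no effect and positive control for full effect.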

Sequence of UniProt O95398 (O95398 whole entry, looked up): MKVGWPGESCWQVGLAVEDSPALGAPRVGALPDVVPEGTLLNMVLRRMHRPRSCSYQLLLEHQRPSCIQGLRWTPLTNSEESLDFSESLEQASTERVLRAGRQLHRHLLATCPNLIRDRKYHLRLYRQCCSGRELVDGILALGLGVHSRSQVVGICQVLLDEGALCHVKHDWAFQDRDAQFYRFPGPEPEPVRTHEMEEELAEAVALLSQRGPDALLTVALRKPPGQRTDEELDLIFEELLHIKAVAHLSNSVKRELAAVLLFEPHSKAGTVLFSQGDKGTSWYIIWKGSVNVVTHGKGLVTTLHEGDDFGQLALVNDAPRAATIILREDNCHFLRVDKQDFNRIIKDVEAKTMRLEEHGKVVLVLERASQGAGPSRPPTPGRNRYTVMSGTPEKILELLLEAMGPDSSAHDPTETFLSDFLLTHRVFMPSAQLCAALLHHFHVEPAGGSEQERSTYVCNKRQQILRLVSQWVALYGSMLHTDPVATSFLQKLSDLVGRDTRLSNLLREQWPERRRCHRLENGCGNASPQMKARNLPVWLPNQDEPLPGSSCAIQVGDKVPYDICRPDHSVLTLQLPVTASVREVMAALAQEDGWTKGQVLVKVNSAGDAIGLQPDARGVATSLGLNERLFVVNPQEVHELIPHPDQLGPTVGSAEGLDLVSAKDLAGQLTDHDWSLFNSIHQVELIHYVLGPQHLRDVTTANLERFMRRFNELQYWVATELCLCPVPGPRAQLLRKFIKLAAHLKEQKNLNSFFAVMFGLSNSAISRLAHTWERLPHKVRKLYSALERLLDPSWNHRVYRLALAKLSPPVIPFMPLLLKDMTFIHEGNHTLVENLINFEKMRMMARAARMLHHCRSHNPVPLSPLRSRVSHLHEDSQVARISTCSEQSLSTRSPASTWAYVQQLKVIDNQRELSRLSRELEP

Question: Which Potency does the source give for Cc1nc2sccn2c(=O)c1S(=O)(=O)N1CCN(c2cccc(C(F)(F)F)c2)CC1 here?
Answer: inconclusive [inhibitor, partial curve, poor fit]

Question: How did the Potency turn out when COc1ccc(/C=C2\SC(=S)N(NS(=O)(=O)c3ccccc3)C2=O)c(OC)c1 was run?
Answer: inconclusive [inhibitor, partial curve]

Question: With CCOC(=O)c1ccc(N2C(=O)CC(N3CCN(C/C=C/c4ccccc4)CC3)C2=O)cc1 (stereo unspecified) as the compound, how does the Potency read?
Answer: inconclusive [inhibitor, partial curve, poor fit]

Question: How did the Potency turn out when CC(C)(C)NC(=O)C(=O)NCc1ccccn1 was run?
Answer: inconclusive [inhibitor, single point]

Question: Which Potency does the source give for CCOc1ccc(OCC)c(NC(=O)C2CCN(S(=O)(=O)c3ccc4c(c3)CC(C)N4C(C)=O)CC2)c1 (stereo unspecified) here?
Answer: inconclusive [inhibitor, single point]

Question: With O=C(c1cccs1)N1C[C@@H](n2cc(C3CC3)nn2)[C@H](O)C[C@@H]1c1ccccc1 as the compound, how does the “activity change, negative = inhibition” value read?
Answer: inactive: 21.2%

Question: For COc1cccc(-c2csc(N3CCN(CC(=O)NNC(=O)c4ccc(Br)cc4)CC3)n2)c1, which Potency is on record?
Answer: inconclusive [inhibitor, full curve, poor fit]

Question: Which Potency does the source give for CC1Cc2ccccc2N1C(=S)Nc1cccc(S(=O)(=O)N(C)C)c1 (stereo unspecified) here?
Answer: inconclusive [inhibitor, partial curve, poor fit]

Question: How did the Potency turn out when Cc1ccsc1C1C(C#N)=C(N)OC2=C1C(=O)CC(C)(C)C2 (stereo unspecified) was run?
Answer: inconclusive [inhibitor, partial curve]

Question: CCC(C)(C)n1nnnc1CN1CCN(C(c2ccccc2)c2ccccc2)CC1 was tested. Which Potency did it give?
Answer: inconclusive [inhibitor, single point]

Question: For Oc1c(C=C2N=c3ccccc3=N2)sc(=S)n1-c1ccccc1, which “activity change, negative = inhibition” value is on record?
Answer: inactive: 2.28%

Question: How did the Potency turn out when O=S1(=O)N[C@@H](Cc2ccccc2)COc2cc(N3CCN(Cc4ccccc4F)CC3)ccc21 was run?
Answer: inconclusive [inhibitor, partial curve]

Question: For CCNC(=O)/C(C#N)=C/c1c(N(Cc2ccccc2)Cc2ccccc2)nc2ccccn2c1=O, which Potency is on record?
Answer: inconclusive [inhibitor, full curve, poor fit]

Question: With S=c1[nH]nc(-c2cc(-c3ccco3)[nH]n2)n1-c1ccccc1Cl as the compound, how does the “activity change, negative = inhibition” value read?
Answer: inactive: -15.6%

Question: Which Potency does the source give for O=C(COC(=O)CCN1C(=O)/C(=C\C=C\c2ccccc2)SC1=S)Nc1cc(F)ccc1F here?
Answer: inconclusive [inhibitor, partial curve]

Question: With CCCCCCN1CCN(C2CN(Cc3cn(Cc4cccc(Cl)c4)nn3)S(=O)(=O)C2)CC1 (stereo unspecified) as the compound, how does the Potency read?
Answer: inconclusive [inhibitor, partial curve]
